Experimental data taken from PubChem BioAssay AID1461 (National Center for Advancing Translational Sciences (NCATS), 2008).
Screen size: about 220,000 compounds; about 2,300 (1%) were called active. The shares of active, inactive and inconclusive entries below differ from those in the screen. The call rests on the fitted dose curve; in most records, active means well fitted inhibition curve with a large enough effect; inconclusive means small, poorly fitted or top-dose-only effect, or effect the other way; inactive means no such curve, though single readings can be large or run the other way. No potency is given beside an inconclusive call; the fits are too rough.

Biological target: Neuropeptide S receptor (Homo sapiens) (UniProt Q6W5P4)
UniProt Q6W5P4, sequence (Q6W5P4 whole entry, looked up): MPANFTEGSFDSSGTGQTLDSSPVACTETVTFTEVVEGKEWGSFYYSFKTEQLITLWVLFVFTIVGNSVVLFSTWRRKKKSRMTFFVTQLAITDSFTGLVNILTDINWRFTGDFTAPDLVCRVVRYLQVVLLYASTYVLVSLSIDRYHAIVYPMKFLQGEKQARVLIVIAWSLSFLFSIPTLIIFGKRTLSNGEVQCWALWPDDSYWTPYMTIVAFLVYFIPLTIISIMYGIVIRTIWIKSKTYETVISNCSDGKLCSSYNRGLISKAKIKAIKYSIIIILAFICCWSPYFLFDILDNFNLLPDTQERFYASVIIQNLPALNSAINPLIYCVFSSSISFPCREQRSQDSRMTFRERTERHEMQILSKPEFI
Assay: qHTS Assay for Antagonists of the Neuropeptide S Receptor: cAMP Signal Transduction; further: nearly all actives have a fitted effect of over 50% in size
Details: CHO-NPSR cells, cAMP TR-FRET, antagonist mode; series mostly up to 38.3 µM
Potency means the concentration at half of the fitted maximal effect; tags describe the fitted curve by direction and shape.

| Structure (SMILES) | Potency |
| --- | --- |
| CCOc1ccc(C(=O)Nc2cc(C)c3c(=O)oc4ccccc4c3n2)cc1 | inconclusive [inhibitor, single point] |
| O=C(Nc1ccc([N+](=O)[O-])cc1)c1cncc(Br)c1 | inactive |
| Oc1ccccc1-c1nc(NCc2cccnc2)c2ccccc2n1 | inconclusive [activator, partial curve, poor fit] |
| CCOC(=O)C1CCCN(C2CC(=O)N(c3ccc(C)cc3)C2=O)C1 (stereo not given) | inactive |
| CCc1cccc(C)c1NC(=O)CSc1nnc(CCCOc2ccc(Cl)cc2Cl)n1C | inactive |
| O=C(NCCc1cnn(-c2ccccc2)c1)c1cc(COc2c(F)cccc2F)on1 | inconclusive [activator, single point] |
| O=C(CNC(=S)N(Cc1ccccc1)Cc1ccccc1F)NCc1ccccc1 | inconclusive [inhibitor, single point] |
| COc1ccc(NC(=O)c2sc3cc(C(F)(F)F)cnc3c2-c2cccs2)cc1 | inconclusive [inhibitor, single point] |
| CCn1c2ccccc2c2nnc(SCCCn3c(=O)[nH]c4ccccc43)nc21 | inconclusive [inhibitor, partial curve] |
| COc1ccc(C(=O)Nc2cc(C(=O)c3ccccc3)c(C)oc2=O)cc1 | inconclusive [inhibitor, single point] |
| COc1ccc(-c2nnn(CC(=O)N(CCCN3CCOCC3)C(C(=O)NC3CCCC3)c3ccc(C)o3)n2)cc1 (stereo not given) | active: 10 µM |
| CC(C)CN(CC(C)C)c1ccc(/C=N/n2cnnc2)cc1[N+](=O)[O-] | inconclusive [inhibitor, single point] |
| O=c1cc(N2CCCCC2)c(-c2ccccc2)nn1Cc1cccc(F)c1 | inconclusive [inhibitor, single point] |
| CCOc1cc(/C=C\[N+](=O)[O-])ccc1OCC(=O)Nc1ccccc1C | active: 3.98 µM |
| CCN(c1ccccc1)S(=O)(=O)c1ccc(Cl)c(C(=O)N(CC2CCCO2)C2CCS(=O)(=O)C2)c1 (stereo not given) | inactive |
| CC(=O)Nc1sc2c(c1CN1CCN(c3ccc(F)cc3)CC1)CCCC2 | inconclusive [inhibitor, single point] |
| CCOC(=O)N1CCN(C(=O)CCC(=O)N2CCOc3ccc(C)cc32)CC1 | inactive |
| C[C@H](NC(=O)c1nc[nH]c1C(=O)NCCCCCNC(=O)OC(C)(C)C)C(=O)OC(C)(C)C | inconclusive [activator, single point] |
| O=C(O)c1ccc(N/N=C/c2cn(Cc3ccc(F)cc3)c3ccccc23)cc1 | inconclusive [inhibitor, single point] |
| Cc1nnc(NC(=O)C2COc3ccccc3O2)s1 (stereo not given) | inconclusive [inhibitor, single point] |
| COc1cc(C2N(c3ccccc3)CCN2c2ccccc2)ccc1OC(C)=O | inactive |
| c1ccc(-c2nc(NCc3ccco3)c3ccccc3n2)cc1 | inconclusive [inhibitor, single point] |
| O=C(NNC(=S)Nc1ccccc1)c1cccc(Br)c1 | inactive |

| Structure (SMILES) | Potency |
| --- | --- |
| Cc1ccc2nc(SCC(=O)Nc3ccc4sc(C)nc4c3)c(C#N)cc2c1 | inconclusive [inhibitor, single point] |
| CCN(CC)c1c(-c2ccccc2)c2cc(C)ccc2[nH]c1=O | inconclusive [inhibitor, single point] |
| Cc1ccc2nc(-c3ccncc3)cc(-c3ccccc3)c2c1 | inconclusive [inhibitor, partial curve] |
| COc1ccc(NS(=O)(=O)c2ccc(NC(=S)NC(=O)c3ccc(Br)cc3)cc2)nn1 | inconclusive [activator, full curve] |
| CCn1c(C(O)c2ccccc2)nc2ccccc21 (stereo not given) | inconclusive [inhibitor, partial curve] |
| CCC(C)C(=O)Nc1nc(C)c(-c2csc(Nc3ccc(Cl)cc3)n2)s1 (stereo not given) | inactive |
| Cc1ccc(-n2ncc3c(N4CCN(c5ccccc5)CC4)ncnc32)c(C)c1 | inconclusive [inhibitor, single point] |
| CN1CC=C2C(C#N)=C(N)C(C#N)(C#N)C(c3cccc(Cl)c3Cl)C2C1 (stereo not given) | inactive |
| COc1ccccc1NC(=O)C1=C(C)Nc2nc(-c3ccc(N(C)C)cc3)nn2C1c1ccncc1 (stereo not given) | inconclusive [inhibitor, partial curve] |
| CCCCNC(=S)Nc1ccc(Oc2ccccc2)cc1 | inconclusive [inhibitor, single point] |
| O=C(Nc1ccc(F)cc1)c1cc(S(=O)(=O)Nc2ccc(F)cc2)cs1 | inactive |
| C/C(=N\NC(=S)Nc1ccccc1C)C1Cc2ccccc2C(=O)O1 (stereo not given) | inconclusive [activator, single point] |
| CCOC(=O)c1c(NC(=O)CSc2nnnn2C)sc(C)c1-c1ccc(C)cc1 | inconclusive [inhibitor, single point] |
| O=C1C=C(NC2CC2)C2(CCCCC2)O1 | inactive |
| Cc1ccc(-c2noc(C3CCCN(S(=O)(=O)c4ccc(S(=O)(=O)N(C)C)cc4)C3)n2)o1 (stereo not given) | inconclusive [inhibitor, single point] |
| C/C(CC(C)(C)C1CCCCC1)=N\NC(N)=S | active: 3.16 µM |
| CCCCP(=O)(CCCC)CCP(=O)(c1ccccc1)c1ccccc1 | inactive |
| CCN(CC)c1ccc(-c2c(C#N)c(N)nc(OC)c2C#N)cc1 | inconclusive [activator, single point] |
| O=S(=O)(c1ccc(Cl)s1)N1CCN(C/C=C/c2ccccc2)CC1 | inactive |
| CCn1cc(C(=O)NCc2cccc(F)c2)c(=O)c2cc(F)c(N3CCN(C(=O)c4ccco4)CC3)cc21 | active: 10 µM |
| CCN1CCCc2cc(CN(CCN3CCOCC3)C(=S)Nc3ccc(OC)c(Cl)c3)ccc21 | inactive |
| C=C1C(=O)C=C2CN(C(=O)c3ccccc3)[C@@](Cc3ccc(F)cc3)(C(=O)OC)[C@@H]12 | active: 1.58 µM |
